Measurements from the supplement of paper PMC4604168 (melanoma cell lines).
This is one part of the list. Single values are uncertain, as repeats are few or missing.

Legend:
Experiment in all cases: cell count relative to DMSO control; melanoma cells; higher = more viable cells
Details in all cases: library dose: standard library concentration; 72 h
[1] = system: G361
[2] = system: IPC-298
[3] = system: IST-MEL1
[4] = system: LB2518-MEL
[5] = system: LOXIMVI
[6] = system: MEL-HO
[7] = system: MZ2-MEL
[8] = system: MeWo
[9] = system: RPMI7951
[10] = system: RVH-421
[11] = system: SkMel28
[12] = system: SkMel2
[13] = system: SkMel30
[14] = system: SkMel5
[15] = system: UACC257
[16] = system: UACC62
[17] = system: WM115
[18] = system: WM1716
[19] = system: WM3526
[20] = system: WM1745
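Further: cells treated in 1,536-well plates, then fixed and DAPI-stained, with nuclei counted from automated high-throughput microscope images.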

Compound	cell count [1] [%]	cell count [2] [%]	cell count [3] [%]	cell count [4] [%]	cell count [5] [%]	cell count [6] [%]	cell count [7] [%]	cell count [8] [%]	cell count [9] [%]	cell count [10] [%]	cell count [11] [%]	cell count [12] [%]	cell count [13] [%]	cell count [14] [%]	cell count [15] [%]	cell count [16] [%]	cell count [17] [%]	cell count [18] [%]	cell count [19] [%]	cell count [20] [%]
CC[C@]1(O)C[C@H]2CN(CCc3c([nH]c4ccccc34)[C@@](C(=O)OC)(c3cc4c(cc3OC)N(C=O)[C@H]3[C@@](O)(C(=O)OC)[C@H](OC(C)=O)[C@]5(CC)C=CCN6CC[C@]43[C@@H]65)C2)C1 [vincristine] + CCN(CC)CCCCNc1ncc2cc(-c3cc(OC)cc(OC)c3)c(NC(=O)NC(C)(C)C)nc2n1 [PD173074] (first compound 0.0005 µM, partner dose 0.5 µM)	103	88.5	105	106	94.3	95.4	104	88.2	110	138	73.5	94.1	81.8	80.5	101	78.1	113	77.4	83	–
Cc1cc(Nc2cc(N3CCN(C)CC3)nc(Sc3ccc(NC(=O)C4CC4)cc3)n2)n[nH]1 [Tozasertib] + COc1cc2ncnc(Nc3ccc(Oc4ccccc4)cc3)c2cc1OC [SrcI1] (first compound 0.03 µM, partner dose 10 µM)	40.5	80.3	87.5	83.7	112	76.3	65.2	59.2	29.9	119	53.2	79.5	69.2	44	80.6	38.2	44.8	67.3	43.4	–
CC[C@]1(O)C[C@H]2CN(CCc3c([nH]c4ccccc34)[C@@](C(=O)OC)(c3cc4c(cc3OC)N(C=O)[C@H]3[C@@](O)(C(=O)OC)[C@H](OC(C)=O)[C@]5(CC)C=CCN6CC[C@]43[C@@H]65)C2)C1 [vincristine] + COc1ccc(COc2ccc(Cc3cnc(N)nc3N)cc2OC)cc1 [GW2580] (first compound 0.0005 µM, partner dose 5 µM)	93.7	88.5	96.3	113	103	93.9	87.8	101	89.6	94	108	99.6	70.5	77.7	88.7	78.9	93.2	72.2	86.3	–
Cc1cc(Nc2cc(N3CCN(C)CC3)nc(Sc3ccc(NC(=O)C4CC4)cc3)n2)n[nH]1 [Tozasertib] + COc1ccc2c(c1)CCC1C2CCC2(C)C(NCCCCCCN3C(=O)C=CC3=O)CCC12 [U73122] (first compound 0.03 µM, partner dose 2 µM)	82.7	99.7	98.2	93.6	84.6	92.9	128	62.4	52.3	76.4	76.9	123	128	87.5	106	77.6	66.8	84.7	105	–
CC[C@]1(O)C[C@H]2CN(CCc3c([nH]c4ccccc34)[C@@](C(=O)OC)(c3cc4c(cc3OC)N(C=O)[C@H]3[C@@](O)(C(=O)OC)[C@H](OC(C)=O)[C@]5(CC)C=CCN6CC[C@]43[C@@H]65)C2)C1 [vincristine] + CCc1ccc(CCOc2ccc(CC3SC(=O)NC3=O)cc2)nc1 [pioglitazone] (first compound 0.0005 µM, partner dose 10 µM)	22.5	50	43.2	53.5	52.2	45.8	33.8	20	17.3	33.5	12.7	8.58	45.4	34.4	48.5	41.9	22.9	27.3	41	–
Cc1cc(Nc2cc(N3CCN(C)CC3)nc(Sc3ccc(NC(=O)C4CC4)cc3)n2)n[nH]1 [Tozasertib] + CCc1ccc(CCOc2ccc(CC3SC(=O)NC3=O)cc2)nc1 [pioglitazone] (first compound 0.03 µM, partner dose 10 µM)	77	88	84.7	88.4	82.5	89.6	84	86.4	110	92.9	69.2	91.7	104	98.9	103	76.6	77.1	77.3	89.9	–
N#CC[C@H](C1CCCC1)n1cc(-c2ncnc3[nH]ccc23)cn1 [ruxolitinib] + O=C1NC(=O)/C(=C/c2ccc(-c3ccc(F)cc3O)o2)S1 [AS252424] (first compound 5 µM, partner dose 5 µM)	77.1	83.3	89.8	154	128	56.7	92.1	87.9	87.3	98.3	108	100	108	91.8	92.9	126	97.3	96.2	100	–
CC[C@]1(O)C[C@H]2CN(CCc3c([nH]c4ccccc34)[C@@](C(=O)OC)(c3cc4c(cc3OC)N(C=O)[C@H]3[C@@](O)(C(=O)OC)[C@H](OC(C)=O)[C@]5(CC)C=CCN6CC[C@]43[C@@H]65)C2)C1 [vincristine] + O=C(Nc1ccccc1)c1cc([N+](=O)[O-])ccc1Cl [GW9662] (first compound 0.0005 µM, partner dose 10 µM)	29.8	72.6	32.3	61.7	43.5	36.9	31.4	14.1	15.6	43.9	18.2	7.3	41.1	27.5	53	53.3	24.2	38.1	31.4	–
Cc1cc(Nc2cc(N3CCN(C)CC3)nc(Sc3ccc(NC(=O)C4CC4)cc3)n2)n[nH]1 [Tozasertib] + N#Cc1c(O)c2c(-c3ccc(-c4ccccc4O)cc3)csc2[nH]c1=O [A769662] (first compound 0.03 µM, partner dose 10 µM)	98.6	103	79.3	72.1	136	96	91.2	88.5	92.4	104	71.2	90.1	115	69.9	102	96.5	75.2	96.7	106	–
Cc1cc(Nc2cc(N3CCN(C)CC3)nc(Sc3ccc(NC(=O)C4CC4)cc3)n2)n[nH]1 [Tozasertib] + Oc1nc(-c2ccc(C(F)(F)F)cc2)nc2c1CSCC2 [XAV939] (first compound 0.03 µM, partner dose 10 µM)	65.7	72.7	81.6	79	94.9	82.1	57.6	80.3	59.5	71.1	40	76	90	62.3	77.9	98.4	63.8	57	94.4	–
N#CC[C@H](C1CCCC1)n1cc(-c2ncnc3[nH]ccc23)cn1 [ruxolitinib] + COc1ccc2c(c1)CCC1C2CCC2(C)C(NCCCCCCN3C(=O)C=CC3=O)CCC12 [U73122] (first compound 5 µM, partner dose 2 µM)	58.9	98.6	88.7	107	77.4	84.4	80.8	46.5	24.1	78.8	87.8	86.3	89	32.5	85.7	43.9	64.6	75.1	105	–
CC[C@]1(O)C[C@H]2CN(CCc3c([nH]c4ccccc34)[C@@](C(=O)OC)(c3cc4c(cc3OC)N(C=O)[C@H]3[C@@](O)(C(=O)OC)[C@H](OC(C)=O)[C@]5(CC)C=CCN6CC[C@]43[C@@H]65)C2)C1 [vincristine] + COc1ccc2c(c1)CCC1C2CCC2(C)C(NCCCCCCN3C(=O)C=CC3=O)CCC12 [U73122] (first compound 0.0005 µM, partner dose 2 µM)	100	87.3	104	124	90.5	96.6	92	57.8	36.5	81.3	74.6	119	70.5	69	78.7	50.4	71.7	47.1	50.9	–
CC[C@]1(O)C[C@H]2CN(CCc3c([nH]c4ccccc34)[C@@](C(=O)OC)(c3cc4c(cc3OC)N(C=O)[C@H]3[C@@](O)(C(=O)OC)[C@H](OC(C)=O)[C@]5(CC)C=CCN6CC[C@]43[C@@H]65)C2)C1 [vincristine] + O=C1NC(=O)/C(=C/c2ccc(-c3ccc(F)cc3O)o2)S1 [AS252424] (first compound 0.0005 µM, partner dose 5 µM)	85.9	99.1	80.4	–	68.9	76.5	–	38.1	42.1	62.8	33.6	36.9	50	37.8	66.8	76.4	33	46.8	56.8	–
N#CC[C@H](C1CCCC1)n1cc(-c2ncnc3[nH]ccc23)cn1 [ruxolitinib] + C[C@@H](Oc1cc(-c2cnn(C3CCNCC3)c2)cnc1N)c1c(Cl)ccc(F)c1Cl [Crizotinib] (first compound 5 µM, partner dose 1 µM)	72.4	86.6	102	84.5	–	108	116	89	78	91.7	54.9	90	105	93.2	91.8	63.1	84	79.4	–	72.5
